# Results published in the supplement of paper PMC8728848.
# This is one part of the list.
# B1: Cohesin-marm-DC-ASGPR-CRD (protein)
# chain: LDITSHHHHHHDDLDAVRIKVDTVNAKPGDTVRIPVRFSGIPSKGIANCDFVYSYDPNVLEIIEIEPGDIIVDPNPDKSFDTAVYPDRKIIVFLFAEDSGTGAYAITKDGVFATIVAKVKEGAPNGLSVIKFVEVGGFANNDLVEQKTQFFDGGVNVGDTTEPATPTTPVTTPTTTDDLDAASCPINWVEHQGSCYWFSRSGKTWPEAERYCQLENTHLVVINSREEQNFVQAHLGSAYTWMGLSDPEGVWKWVDGTDYSSGFQNWKPGQPDDWQGHGLGGGEDCAHFHPDGRWNDDVCQRSYHWVCEAGLTQASQDSH
# Assays:
# Test in all cases: glycan array binding signal (z-score within array); higher = stronger binding
# Settings in all cases: glycan notation: IUPAC condensed, linker removed
# [1] = target: Fuc(a1-2)[GalNAc(a1-3)]Gal(b1-3)GlcNAc(b1-6)GalNAc
# How it was run: (§1)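 The binding signal is a Z-score computed within each array and averaged over linkers. Arrays of the same protein sequence at different concentrations or buffers were also averaged together. Data originate from 3228 arrays in the Consortium for Functional Glycomics database, kept only where the protein sequence was available.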
# [2] = target: Fuc(a1-2)[GalNAc(a1-3)]Gal(b1-4)Glc
# How it was run: as §1
# [3] = target: Fuc(a1-2)[GalNAc(a1-3)]Gal(b1-4)GlcNAc
# How it was run: as §1
# [4] = target: Fuc(a1-2)[GalNAc(a1-3)]Gal(b1-4)GlcNAc(b1-2)Man
# How it was run: as §1
# [5] = target: Fuc(a1-2)[GalNAc(a1-3)]Gal(b1-4)GlcNAc(b1-2)Man(a1-3)[Fuc(a1-2)[GalNAc(a1-3)]Gal(b1-4)GlcNAc(b1-2)Man(a1-6)]Man(b1-4)GlcNAc(b1-4)GlcNAc
# How it was run: as §1
# [6] = target: Fuc(a1-2)[GalNAc(a1-3)]Gal(b1-4)GlcNAc(b1-2)Man(a1-3)[Fuc(a1-2)[GalNAc(a1-3)]Gal(b1-4)GlcNAc(b1-2)Man(a1-6)]Man(b1-4)GlcNAc(b1-4)[Fuc(a1-6)]GlcNAc
# How it was run: as §1
# [7] = target: Fuc(a1-2)[GalNAc(a1-3)]Gal(b1-4)GlcNAc(b1-3)Gal(b1-4)GlcNAc
# How it was run: as §1
# [8] = target: Fuc(a1-2)[GalNAc(a1-3)]Gal(b1-4)GlcNAc(b1-3)Gal(b1-4)GlcNAc(b1-3)Gal(b1-4)GlcNAc
# How it was run: as §1
# [9] = target: Fuc(a1-2)[GalNAc(a1-3)]Gal(b1-4)GlcNAc(b1-3)GalNAc
# How it was run: as §1
# [10] = target: Fuc(a1-2)[GalNAc(a1-3)]Gal(b1-4)GlcNAc(b1-3)[Fuc(a1-2)[GalNAc(a1-3)]Gal(b1-4)GlcNAc(b1-6)]GalNAc
# How it was run: as §1
# [11] = target: Fuc(a1-2)[GalNAc(a1-3)]Gal(b1-4)GlcNAc(b1-6)GalNAc
# How it was run: as §1
# [12] = target: Fuc(a1-2)[GalNAc(a1-3)]Gal(b1-4)[Fuc(a1-3)]GlcNAc
# How it was run: as §1
# [13] = target: Fuc(a1-2)[GalNAc(a1-3)]Gal(b1-4)[Fuc(a1-3)]GlcNAc(b1-3)GalNAc
# How it was run: as §1
# [14] = target: Fuc(a1-2)[GalNAc(a1-4)]Gal(b1-4)GlcNAc
# How it was run: as §1
# [15] = target: Fuc(a1-2)[GalNAc(b1-3)]Gal
# How it was run: as §1
# Fuc(a1-3)GlcNAc = target: Fuc(a1-3)GlcNAc
# How it was run: as §1
# [16] = target: Fuc(a1-3)[Gal(b1-4)]Glc6S
# How it was run: as §1
# [17] = target: Fuc(a1-3)[Gal(b1-4)]GlcNAc
# How it was run: as §1
# [18] = target: Fuc(a1-3)[Gal(b1-4)]GlcNAc(b1-2)Man
# How it was run: as §1
# [19] = target: Fuc(a1-3)[Gal(b1-4)]GlcNAc(b1-2)Man(a1-3)[Fuc(a1-3)[Gal(b1-4)]GlcNAc(b1-2)Man(a1-6)]Man(b1-4)GlcNAc(b1-4)GlcNAc
# How it was run: as §1
# [20] = target: Fuc(a1-3)[Gal(b1-4)]GlcNAc(b1-2)Man(a1-3)[Fuc(a1-3)[Gal(b1-4)]GlcNAc(b1-2)Man(a1-6)]Man(b1-4)GlcNAc(b1-4)[Fuc(a1-6)]GlcNAc
# How it was run: as §1
# [21] = target: Fuc(a1-3)[Gal(b1-4)]GlcNAc(b1-3)Gal(b1-3)[Fuc(a1-4)]GlcNAc
# How it was run: as §1
# [22] = target: Fuc(a1-3)[Gal(b1-4)]GlcNAc(b1-3)Gal(b1-4)[Fuc(a1-3)]GlcNAc
# How it was run: as §1
# [23] = target: Fuc(a1-3)[Gal(b1-4)]GlcNAc(b1-3)Gal(b1-4)[Fuc(a1-3)]GlcNAc(b1-3)Gal(b1-4)[Fuc(a1-3)]GlcNAc
# How it was run: as §1
# [24] = target: Fuc(a1-3)[Gal(b1-4)]GlcNAc(b1-3)GalNAc
# How it was run: as §1
# [25] = target: Fuc(a1-3)[Gal(b1-4)]GlcNAc(b1-6)GalNAc
# How it was run: as §1
# [26] = target: Fuc(a1-3)[Gal(b1-4)]GlcNAc(b1-6)[Gal(b1-3)GlcNAc(b1-3)]Gal(b1-4)Glc
# How it was run: as §1
# [27] = target: Fuc(a1-3)[Gal(b1-4)]GlcNAc6S
# How it was run: as §1
# [28] = target: Fuc(a1-3)[Gal3S(b1-4)]Glc
# How it was run: as §1
# [29] = target: Fuc(a1-3)[Gal3S(b1-4)]GlcNAc
# How it was run: as §1
# [30] = target: Fuc(a1-3)[Gal3S(b1-4)]GlcNAc6S
# How it was run: as §1
# [31] = target: Fuc(a1-3)[GalNAc(b1-4)]GlcNAc
# How it was run: as §1
# [32] = target: Fuc(a1-3)[GalNAc(b1-4)]GlcNAc6S
# How it was run: as §1
# Fuc(a1-4)GlcNAc = target: Fuc(a1-4)GlcNAc
# How it was run: as §1
# Fuc(b1-3)GlcNAc = target: Fuc(b1-3)GlcNAc
# How it was run: as §1
# Gal(a1-2)Gal = target: Gal(a1-2)Gal
# How it was run: as §1
# Gal(a1-3)Gal = target: Gal(a1-3)Gal
# How it was run: as §1
binder,measurement,setting,value
B1,glycan array binding signal (z-score),[1],2.04
same,glycan array binding signal (z-score),[2],1.96
same,glycan array binding signal (z-score),[3],2.22
same,glycan array binding signal (z-score),[4],2.33
same,glycan array binding signal (z-score),[5],2.46
same,glycan array binding signal (z-score),[6],1.32
same,glycan array binding signal (z-score),[7],2.91
same,glycan array binding signal (z-score),[8],2.99
same,glycan array binding signal (z-score),[9],0.983
same,glycan array binding signal (z-score),[10],2.49
same,glycan array binding signal (z-score),[11],2.6
same,glycan array binding signal (z-score),[12],3.78
same,glycan array binding signal (z-score),[13],-0.306
same,glycan array binding signal (z-score),[14],2.61
same,glycan array binding signal (z-score),[15],2.51
same,glycan array binding signal (z-score),Fuc(a1-3)GlcNAc,-0.345
same,glycan array binding signal (z-score),[16],-0.407
same,glycan array binding signal (z-score),[17],-0.396
same,glycan array binding signal (z-score),[18],-0.448
same,glycan array binding signal (z-score),[19],-0.413
same,glycan array binding signal (z-score),[20],-0.357
same,glycan array binding signal (z-score),[21],-0.447
same,glycan array binding signal (z-score),[22],-0.413
same,glycan array binding signal (z-score),[23],-0.4
same,glycan array binding signal (z-score),[24],-0.459
same,glycan array binding signal (z-score),[25],2.63
same,glycan array binding signal (z-score),[26],-0.446
same,glycan array binding signal (z-score),[27],-0.448
same,glycan array binding signal (z-score),[28],-0.423
same,glycan array binding signal (z-score),[29],-0.379
same,glycan array binding signal (z-score),[30],-0.454
same,glycan array binding signal (z-score),[31],2.57
same,glycan array binding signal (z-score),[32],2.91
same,glycan array binding signal (z-score),Fuc(a1-4)GlcNAc,-0.349
same,glycan array binding signal (z-score),Fuc(b1-3)GlcNAc,-0.405
same,glycan array binding signal (z-score),Gal(a1-2)Gal,-0.364
same,glycan array binding signal (z-score),Gal(a1-3)Gal,-0.418
